# Source: the supplement of paper PMC8728848
# The list shows a part of the results.
# Legend:
# Assay in all cases: glycan array binding signal (z-score within array); higher = stronger binding
# Conditions in all cases: glycan notation: IUPAC condensed, linker removed
# [1] = biological target: Man(a1-2)Man(a1-3)[Man(a1-2)Man(a1-6)]Man
# Method in brief: (§1)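 The Consortium for Functional Glycomics database supplied 3228 glycan arrays, of which those lacking an available protein sequence were dropped. The binding signal, a within-array Z-score, was averaged across arrays of the same protein sequence and across linkers. Negative scores can be read as non-binding.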
# [2] = biological target: Man(a1-2)Man(a1-3)[Man(a1-2)Man(a1-6)]Man(a1-6)[Man(a1-2)Man(a1-2)Man(a1-3)]Man
# Method in brief: as §1
# [3] = biological target: Man(a1-2)Man(a1-3)[Man(a1-2)Man(a1-6)]Man(a1-6)[Man(a1-2)Man(a1-2)Man(a1-3)]Man(b1-4)GlcNAc(b1-4)GlcNAc
# Method in brief: as §1
# [4] = biological target: Man(a1-2)Man(a1-3)[Man(a1-6)]Man(a1-6)[Man(a1-2)Man(a1-3)]Man(b1-4)GlcNAc(b1-4)GlcNAc
# Method in brief: as §1
# [5] = biological target: Man(a1-2)Man(a1-6)[Man(a1-3)]Man(a1-6)[Man(a1-2)Man(a1-2)Man(a1-3)]Man
# Method in brief: as §1
# [6] = biological target: Man(a1-2)Man(a1-6)[Man(a1-3)]Man(a1-6)[Man(a1-2)Man(a1-2)Man(a1-3)]Man(b1-4)GlcNAc(b1-4)GlcNAc
# Method in brief: as §1
# Man(a1-3)[Man(a1-6)]Man = biological target: Man(a1-3)[Man(a1-6)]Man
# Method in brief: as §1
# [7] = biological target: Man(a1-3)[Man(a1-6)]Man(a1-6)[Man(a1-2)Man(a1-3)]Man(b1-4)GlcNAc(b1-4)GlcNAc
# Method in brief: as §1
# [8] = biological target: Man(a1-3)[Man(a1-6)]Man(a1-6)[Man(a1-3)]Man
# Method in brief: as §1
# [9] = biological target: Man(a1-3)[Man(a1-6)]Man(a1-6)[Man(a1-3)]Man(b1-4)GlcNAc(b1-4)GlcNAc
# Method in brief: as §1
# [10] = biological target: Man(a1-3)[Man(a1-6)]Man(b1-4)GlcNAc(b1-4)GlcNAc
# Method in brief: as §1
# Man(a1-6)Man = biological target: Man(a1-6)Man
# Method in brief: as §1
# Man(b1-4)GlcNAc = biological target: Man(b1-4)GlcNAc
# Method in brief: as §1
# Neu5Ac(a2-3)Gal = biological target: Neu5Ac(a2-3)Gal
# Method in brief: as §1
# [11] = biological target: Neu5Ac(a2-3)Gal(b1-3)GalNAc
# Method in brief: as §1
# [12] = biological target: Neu5Ac(a2-3)Gal(b1-3)GalNAc(b1-3)Gal(a1-4)Gal(b1-4)Glc
# Method in brief: as §1
# [13] = biological target: Neu5Ac(a2-3)Gal(b1-3)GalNAc(b1-3)Gal(b1-4)GlcNAc
# Method in brief: as §1
# [14] = biological target: Neu5Ac(a2-3)Gal(b1-3)GalNAc(b1-4)[Neu5Ac(a2-3)]Gal(b1-4)Glc
# Method in brief: as §1
# [15] = biological target: Neu5Ac(a2-3)Gal(b1-3)GalNAc(b1-4)[Neu5Ac(a2-8)Neu5Ac(a2-3)]Gal(b1-4)Glc
# Method in brief: as §1
# [16] = biological target: Neu5Ac(a2-3)Gal(b1-3)GalNAc6S
# Method in brief: as §1
# [17] = biological target: Neu5Ac(a2-3)Gal(b1-3)GlcNAc
# Method in brief: as §1
# [18] = biological target: Neu5Ac(a2-3)Gal(b1-3)GlcNAc(b1-3)Gal(b1-3)GlcNAc
# Method in brief: as §1
# [19] = biological target: Neu5Ac(a2-3)Gal(b1-3)GlcNAc(b1-3)Gal(b1-4)GlcNAc
# Method in brief: as §1
# [20] = biological target: Neu5Ac(a2-3)Gal(b1-3)GlcNAc(b1-3)GalNAc
# Method in brief: as §1
# [21] = biological target: Neu5Ac(a2-3)Gal(b1-3)GlcNAc6S
# Method in brief: as §1
# [22] = biological target: Neu5Ac(a2-3)Gal(b1-3)[Fuc(a1-4)]GlcNAc
# Method in brief: as §1
# [23] = biological target: Neu5Ac(a2-3)Gal(b1-3)[Fuc(a1-4)]GlcNAc(b1-3)Gal(b1-3)[Fuc(a1-4)]GlcNAc
# Method in brief: as §1
# [24] = biological target: Neu5Ac(a2-3)Gal(b1-3)[Fuc(a1-4)]GlcNAc(b1-3)Gal(b1-4)[Fuc(a1-3)]GlcNAc
# Method in brief: as §1
# [25] = biological target: Neu5Ac(a2-3)Gal(b1-3)[Neu5Ac(a2-3)Gal(b1-4)]GlcNAc
# Method in brief: as §1
# [26] = biological target: Neu5Ac(a2-3)Gal(b1-3)[Neu5Ac(a2-6)]GalNAc
# Method in brief: as §1
# Neu5Ac(a2-3)Gal(b1-4)Glc = biological target: Neu5Ac(a2-3)Gal(b1-4)Glc
# Method in brief: as §1
# [27] = biological target: Neu5Ac(a2-3)Gal(b1-4)GlcNAc
# Method in brief: as §1
# [28] = biological target: Neu5Ac(a2-3)Gal(b1-4)GlcNAc(b1-2)Man(a1-3)[GlcNAc(b1-2)Man(b1-4)GlcNAc(b1-2)Man(a1-6)]Man(b1-4)GlcNAc(b1-4)GlcNAc
# Method in brief: as §1
# [29] = biological target: Neu5Ac(a2-3)Gal(b1-4)GlcNAc(b1-2)Man(a1-3)[Neu5Ac(a2-3)Gal(b1-4)GlcNAc(b1-2)Man(a1-6)]Man(b1-4)GlcNAc(b1-4)GlcNAc
# Method in brief: as §1
# [30] = biological target: Neu5Ac(a2-3)Gal(b1-4)GlcNAc(b1-2)Man(a1-3)[Neu5Ac(a2-6)Gal(b1-4)GlcNAc(b1-2)Man(a1-6)]Man(b1-4)GlcNAc(b1-4)GlcNAc
# Method in brief: as §1
# [31] = biological target: Neu5Ac(a2-3)Gal(b1-4)GlcNAc(b1-3)Gal
# Method in brief: as §1
binder,measurement,setting,value
"BC2L-A (Burkholderia cenocepacia), Q1BKJ8_BURCA (protein) ADSQTSSNRAGEFSIPPNTDFRAIFFANAAEQQHIKLFIGDSQEPAAYHKLTTRDGPREATLNSGNGKIRFEVSVNGKPSATDARLAPINGKKSDGSPFTVNFGIVVSEDGHDSDYNDGIVVLQWPIG",glycan array binding signal (z-score),[1],2.25
same,glycan array binding signal (z-score),[2],4.82
same,glycan array binding signal (z-score),[3],3.02
same,glycan array binding signal (z-score),[4],3.85
same,glycan array binding signal (z-score),[5],4.09
same,glycan array binding signal (z-score),[6],5.06
same,glycan array binding signal (z-score),Man(a1-3)[Man(a1-6)]Man,5.28
same,glycan array binding signal (z-score),[7],5.49
same,glycan array binding signal (z-score),[8],3.88
same,glycan array binding signal (z-score),[9],4.38
same,glycan array binding signal (z-score),[10],4.23
same,glycan array binding signal (z-score),Man(a1-6)Man,0.444
same,glycan array binding signal (z-score),Man(b1-4)GlcNAc,-0.291
same,glycan array binding signal (z-score),Neu5Ac(a2-3)Gal,-0.292
same,glycan array binding signal (z-score),[11],-0.289
same,glycan array binding signal (z-score),[12],-0.283
same,glycan array binding signal (z-score),[13],-0.327
same,glycan array binding signal (z-score),[14],-0.291
same,glycan array binding signal (z-score),[15],-0.183
same,glycan array binding signal (z-score),[16],-0.291
same,glycan array binding signal (z-score),[17],-0.292
same,glycan array binding signal (z-score),[18],-0.272
same,glycan array binding signal (z-score),[19],-0.218
same,glycan array binding signal (z-score),[20],-0.218
same,glycan array binding signal (z-score),[21],0.08
same,glycan array binding signal (z-score),[22],0.034
same,glycan array binding signal (z-score),[23],0.536
same,glycan array binding signal (z-score),[24],0.563
same,glycan array binding signal (z-score),[25],-0.246
same,glycan array binding signal (z-score),[26],-0.083
same,glycan array binding signal (z-score),Neu5Ac(a2-3)Gal(b1-4)Glc,-0.293
same,glycan array binding signal (z-score),[27],-0.289
same,glycan array binding signal (z-score),[28],-0.271
same,glycan array binding signal (z-score),[29],-0.22
same,glycan array binding signal (z-score),[30],-0.296
same,glycan array binding signal (z-score),[31],-0.214
